Assay results as given in the RNAGym collection of RNA variant scans (doi:10.7554/elife.90254).
Read counts are not given, so values of variants with three or more changes are uncertain.

B1: LINE1-mini (parent)
chain: GGCAGAGCUCAACACAGCGUGGCAAAGUGGCUGUGGCUAGACUGCC

Variants of: B1
Experiment: self-cleavage, relative activity (ratio to wild type); higher = more cleavage; in vitro, sequencing; the parent is a self-cleaving ribozyme
For G7C G17A C42U, the self-cleavage was 0.03.
G7C C8U C13A showed a self-cleavage of 0.06.
Variant G7C U9G A41U has a self-cleavage of 0.05.
Variant G7C C15G U20A G21C A24U G36C has a self-cleavage of 0.03.
Work on G7C C13A A39G yielded a self-cleavage of 0.07.
G7C A16U A25U G35A showed a self-cleavage of 0.06.
Work on G7C C8U C18G G40A U43C yielded a self-cleavage of 0.05.
With G7C C10U U32C G40C C42A C45A the self-cleavage was 0.06.
Variant G7C A14G C23A A24G U38A G40U has a self-cleavage of 0.1.
In the case of G7C A16C U32A, the self-cleavage is reported as 0.04.
Variant G7C G21A C23U G36U A39U C46G has a self-cleavage of 0.02.
Variant G7C G19C C42U has a self-cleavage of 0.08.
For G7C C10A C31A A41G, the self-cleavage was 0.02.
Work on G7U A12G G19A A26G C37A yielded a self-cleavage of 0.01.
In the case of G7C C10A G36U U43C, the self-cleavage is reported as 0.
With G7C C10A G19A U38A the self-cleavage was 0.01.
G7C C8A A11U gave a self-cleavage of 0.02.
Work on G7C A24U C37G U38A G40A yielded a self-cleavage of 0.38.
Work on G7U A16C U28G A41G yielded a self-cleavage of 0.04.
Work on G7U A14G U20C G22A yielded a self-cleavage of 0.04.
In the case of G7C G19U G21U, the self-cleavage is reported as 0.03.
Variant G7C G21C G33U C42U has a self-cleavage of 0.01.
G7U A14U C37U showed a self-cleavage of 0.05.
In the case of G7U A14U G17A C31A, the self-cleavage is reported as 0.47.
In the case of G7C A26C C45A, the self-cleavage is reported as 0.02.
G7C U20C U34G showed a self-cleavage of 0.01.
With G7C U38C G40C the self-cleavage was 0.01.
G7C A16G G21C gave a self-cleavage of 0.06.
G7C C15A C23A showed a self-cleavage of 0.06.
Work on G7C C15A C23G yielded a self-cleavage of 0.08.
For G7C A26U G33A C46G, the self-cleavage was 0.1.
With G7C A14U U43A the self-cleavage was 0.01.
G7C G19U U38C C45G gave a self-cleavage of 0.05.
G7U A16C G30U U32A G33C showed a self-cleavage of 0.05.
In the case of G7C G17A C18G G36C C42A, the self-cleavage is reported as 0.01.
Work on G7U A11C A14G G27U yielded a self-cleavage of 0.
With G7C C13G G19A the self-cleavage was 0.08.
Variant G7U A12G A14U G17U has a self-cleavage of 0.04.
For G7U A16G A24G G27A G30U, the self-cleavage was 0.01.
In the case of G7C G27U G40U, the self-cleavage is reported as 0.04.
For G7C G22A C31U, the self-cleavage was 0.09.
G7C U20A G30U U43A gave a self-cleavage of 0.02.
G7C C10A G19C gave a self-cleavage of 0.04.
Work on G7C G30U G36A yielded a self-cleavage of 0.12.
With G7C C13A A16C A25C A39C the self-cleavage was 0.03.
G7C C13U U20G G27C G29A U32G gave a self-cleavage of 0.05.
With G7C U20A C37G the self-cleavage was 0.03.
In the case of G7C G19C A26C, the self-cleavage is reported as 0.01.
For G7C A14C C15G G27U U28C U38G C46A, the self-cleavage was 0.01.
In the case of G7C A26U C45A, the self-cleavage is reported as 0.08.
In the case of G7C G17U A26G, the self-cleavage is reported as 0.13.
Work on G7C C15U G33U yielded a self-cleavage of 0.06.
Variant G7C C8U G19A G27U G29C has a self-cleavage of 0.24.
Variant G7C G30C G35U has a self-cleavage of 0.18.
G7C G22U C46U gave a self-cleavage of 0.05.
Variant G7C U9A C10A has a self-cleavage of 0.02.
In the case of G7U A12C U34G, the self-cleavage is reported as 0.07.
With G7C A24C G36A U43A the self-cleavage was 0.05.
For G7C U28G G40U, the self-cleavage was 0.15.
G7C G19A A26G G27C C42U gave a self-cleavage of 0.02.
Work on G7U A14U G40U U43G yielded a self-cleavage of 0.1.
G7C C10U A14G A25C C31A C45U showed a self-cleavage of 0.07.
For G7C A12G C37A G40U, the self-cleavage was 0.04.
With G7C C8U G22U C37A the self-cleavage was 0.07.
G7C C10A U20A C42A showed a self-cleavage of 0.
For G7C C13U C37G G44C, the self-cleavage was 0.03.
G7C A26G U32A G44A gave a self-cleavage of 0.05.
Variant G7U A11C G17A G22C has a self-cleavage of 0.
Variant G7C C15U A24C G44U has a self-cleavage of 0.13.
Work on G7C U20C G22A yielded a self-cleavage of 0.04.
With G7C C23A U32G G44A the self-cleavage was 0.05.
G7C A12G U28C G30A showed a self-cleavage of 0.01.
G7C G22U U43C showed a self-cleavage of 0.04.
In the case of G7C U9C C46A, the self-cleavage is reported as 0.02.
For G7C A14G U32G, the self-cleavage was 0.08.
For G7C U20A U28C C42A, the self-cleavage was 0.02.
In the case of G7C A14G C15A C23U G35U A41U, the self-cleavage is reported as 0.
Work on G7C A12G C13U A39U yielded a self-cleavage of 0.04.
For G7C C8A U9G C13U C23A C42A, the self-cleavage was 0.02.
G7C C10U A12C C46G gave a self-cleavage of 0.01.
In the case of G7C C8G C10A C45U C46U, the self-cleavage is reported as 0.05.
With G7C G29U C31A U38G the self-cleavage was 0.03.
G7C G27A C45A gave a self-cleavage of 0.03.
Variant G7C G21A G27A G29U U34C has a self-cleavage of 0.02.
G7U A16C U28C gave a self-cleavage of 0.13.
Variant G7C C10A C45G has a self-cleavage of 0.
G7C A26C G29A gave a self-cleavage of 0.14.
G7U A11G G30C C31A U34A U38G gave a self-cleavage of 0.
With G7C G21C G29U G33A U38A C42A the self-cleavage was 0.05.
G7U A11G A24U C37U showed a self-cleavage of 0.04.
Work on G7C C18A C31A C46U yielded a self-cleavage of 0.04.
Variant G7C C8A U9G U20G A41U has a self-cleavage of 0.01.
Work on G7C G36A C42G C45A yielded a self-cleavage of 0.
Variant G7C C10U A26G C42U has a self-cleavage of 0.18.
For G7U A11U C31G, the self-cleavage was 0.04.
With G7U A11U C31A the self-cleavage was 0.01.
G7U A14G C15G A41G gave a self-cleavage of 0.02.
G7C G30U C31A C37G G40C showed a self-cleavage of 0.01.
Work on G7C G21A C23G G30C C31U C37G G44U yielded a self-cleavage of 0.04.
For G7C G17A G40U, the self-cleavage was 0.08.
For G7U A12C G17U G29A, the self-cleavage was 0.01.
With G7U A11U U38C the self-cleavage was 0.11.
Work on G7C A12U G33A U38C yielded a self-cleavage of 0.02.
In the case of G7U A12G A39C, the self-cleavage is reported as 0.02.
G7C U32G U38A showed a self-cleavage of 0.34.
In the case of G7U A12G G19C G21U A25C C46A, the self-cleavage is reported as 0.02.
Variant G7C C10A A25C has a self-cleavage of 0.
For G7C C23G G44U, the self-cleavage was 0.15.
With G7C G19C G40A A41G the self-cleavage was 0.03.
Work on G7C U9G G19A A25C yielded a self-cleavage of 0.29.
Variant G7C C13A C31A U43A has a self-cleavage of 0.02.
With G7C A16C G35C the self-cleavage was 0.05.
Work on G7C C23A C42G yielded a self-cleavage of 0.02.
G7C C8G A26U gave a self-cleavage of 0.18.
For G7C C18G G21A C31U U32C G35U, the self-cleavage was 0.03.
With G7C G22U A26C U34A the self-cleavage was 0.02.
In the case of G7C U20A U28C G30U, the self-cleavage is reported as 0.03.
Work on G7C C10G A12G yielded a self-cleavage of 0.01.
For G7C G29A G33U G40A U43A, the self-cleavage was 0.67.
In the case of G7C C8A G19C G21A G44C, the self-cleavage is reported as 0.03.
G7U A16C C18G U20C G35U G40C showed a self-cleavage of 0.06.
Variant G7C C10U A41G C42A has a self-cleavage of 0.02.
With G7C G22U A26G C31A the self-cleavage was 0.02.
Work on G7C C10U A16C G19C C45A yielded a self-cleavage of 0.03.
Variant G7C C37A U43A has a self-cleavage of 0.04.
For G7C C10U U38C, the self-cleavage was 0.03.
For G7C G35C G36A, the self-cleavage was 0.04.
Work on G7U A12C A14U G27U yielded a self-cleavage of 0.04.
G7U A14G G29C G33U G44C C46A showed a self-cleavage of 0.24.
For G7C U20G G40U, the self-cleavage was 0.02.
With G7C A25C G44C C46G the self-cleavage was 0.01.
With G7C G30C U32A G40U the self-cleavage was 0.04.
With G7C C10G A14U C15G U32C C45A the self-cleavage was 0.02.
Work on G7C A16C G17A G21U C37G U43A yielded a self-cleavage of 0.03.
In the case of G7C C8A C15A, the self-cleavage is reported as 0.36.
Variant G7C U28C G35C A39G has a self-cleavage of 0.02.
For G7C U9C G22C A26U C37A, the self-cleavage was 0.01.
G7C C10U A26C gave a self-cleavage of 0.02.
G7C A12U G17A showed a self-cleavage of 0.07.
With G7C C18U G36U C37A the self-cleavage was 0.21.
With G7C G29A G30C G40U the self-cleavage was 0.03.
Variant G7C C37G C42U has a self-cleavage of 0.02.
With G7C C8G C42U the self-cleavage was 0.11.
In the case of G7C A25C U38A, the self-cleavage is reported as 0.
With G7C G17U G27C the self-cleavage was 0.06.
With G7C U43G C46G the self-cleavage was 0.02.
For G7C G17A A24G G30U A39U, the self-cleavage was 0.02.
G7C C8A G21C C37A gave a self-cleavage of 0.12.
G7C C8G G19U gave a self-cleavage of 0.07.
Variant G7C C37U C42A has a self-cleavage of 0.
G7C U20C A26U gave a self-cleavage of 0.01.
G7C U9C C10G C13G G27A showed a self-cleavage of 0.
Variant G7C C23A G27C G30C has a self-cleavage of 0.07.
For G7U A11G C13U C45G, the self-cleavage was 0.03.
G7C C8G C18A A26G G35A U43C gave a self-cleavage of 0.03.
For G7C G19C G35U, the self-cleavage was 0.
G7C G27A U38A C42U showed a self-cleavage of 0.09.
With G7U A14G C15A G36C A39U A41G the self-cleavage was 0.05.
Variant G7C G30A U43C has a self-cleavage of 0.14.
Variant G7C A26G G30A has a self-cleavage of 0.27.
G7U A11U C42A showed a self-cleavage of 0.02.
In the case of G7C G22U G27C U34G C46A, the self-cleavage is reported as 0.07.
G7C C8U A16C G29U gave a self-cleavage of 0.18.
Variant G7C C13U C15G G22U has a self-cleavage of 0.07.
G7C C15A G36U C45G gave a self-cleavage of 0.02.
With G7C C18G A39U the self-cleavage was 0.05.
G7C C18U U32C G33U C37U C45U gave a self-cleavage of 0.03.
